Reference: the supplement of paper PMC3334620
The full ranking holds about 33,000 sequences; the median of “E-score (-0.5 to 0.5)” is about -0.036, and the highest 2% start at about 0.37. The list shows a part of the results.

The sequences below were run against T1, Yer064c (UniProt P40041) (assay: PBM E-score (8-mer binding enrichment) (E-score (-0.5 to 0.5)); higher = stronger / more preferred TF binding; most listed sequences are background and not binding sites). Details: protein concentration: 200 nM; construct: GST-full length.
T1 sequence: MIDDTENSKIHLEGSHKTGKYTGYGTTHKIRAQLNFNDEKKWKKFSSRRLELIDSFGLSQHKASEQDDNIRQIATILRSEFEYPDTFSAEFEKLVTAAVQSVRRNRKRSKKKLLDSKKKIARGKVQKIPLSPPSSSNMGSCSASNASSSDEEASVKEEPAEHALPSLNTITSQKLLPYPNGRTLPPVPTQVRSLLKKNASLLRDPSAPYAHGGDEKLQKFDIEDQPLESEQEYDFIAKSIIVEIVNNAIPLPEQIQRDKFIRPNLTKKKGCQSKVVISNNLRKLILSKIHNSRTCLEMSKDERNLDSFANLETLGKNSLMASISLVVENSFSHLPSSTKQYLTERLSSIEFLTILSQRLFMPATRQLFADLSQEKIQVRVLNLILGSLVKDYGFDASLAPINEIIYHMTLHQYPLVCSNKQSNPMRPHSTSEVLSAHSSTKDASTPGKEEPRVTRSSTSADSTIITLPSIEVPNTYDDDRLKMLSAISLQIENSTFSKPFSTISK
Method in brief: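 Full-length yeast transcription factors or their DNA-binding domains, GST-tagged and expressed with PURExpress, were applied at about 100-200 nM to universal all-10-mer Agilent arrays. These arrays had been made double-stranded by primer extension on fresh or once-stripped slides. Detection used fluorescent anti-GST, normalisation used masliner, and E-scores for ungapped eight-base words pooled with reverse complements came from the Universal PBM Analysis Suite.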

| Sequence | PBM E-score |
| --- | --- |
| GAACTTGC | -0.215 |
| CTTCGATA | -0.049 |
| GAGGATTA | 0.109 |
| GCCGACAC | -0.146 |
| GGCAGTAA | 0.0188 |
| GCAGCACA | -0.0653 |
| ATCGACTC | 0.304 |
| AGTCATCA | 0.485 |
| AGCCCAAC | -0.21 |
| CGTCGCAG | -0.031 |
| ACGTAACC | -0.0806 |
| GGATGGTA | -0.0582 |
| GGACATTA | -0.089 |
| CCCGGTGA | 0.134 |
| CAATGATG | -0.0856 |
| ACTGACCG | -0.0617 |
| CATCTTGA | 0.15 |
| CGTGACAA | -0.253 |
| CTTCCCGA | -0.0646 |
| GGAGATAC | -0.119 |
| ATCTTGAG | 0.0721 |
| CAGGGCGA | -0.118 |

| Sequence | PBM E-score |
| --- | --- |
| GGGACGAA | -0.244 |
| AACGCATT | 0.0327 |
| CCCCTCCC | -0.268 |
| AATCAAGA | 0.235 |
| TAAAAGTA | 0.0688 |
| ATGGCCCA | -0.173 |
| GATTTCAA | 0.112 |
| TGATAAAA | 0.0422 |
| ATGATTAG | 0.438 |
| GGCTACCA | -0.00666 |
| AGCCACCT | 0.154 |
| ATAGGACG | -0.178 |
| CGTTACGA | -0.0217 |
| GCATGCGA | -0.147 |
| GCCGTGAC | 0.293 |
| GGTTCTGA | 0.159 |
| CGGAGCAA | -0.244 |
| CTCTTACA | -0.0635 |
| CGGATCTA | -0.0634 |
| ATGTAAAC | -0.0389 |
| ACACGCCA | -0.0841 |
| ACTCCCGC | 0.0508 |

| Sequence | PBM E-score |
| --- | --- |
| GTTCGCCA | -0.0839 |
| AAAGGACT | 0.264 |
| GCCCGCAA | 0.0354 |
| CATCAAAA | 0.153 |
| ACGTTTCG | -0.064 |
| ACAGATAT | 0.0215 |
| AAACTAAG | 0.175 |
| ATCATCAT | 0.332 |
| GAATAGGA | 0.016 |
| ACTAAAAC | 0.201 |
| TACGAAAA | 0.0872 |
| AGCTGTCC | -0.216 |
| GGGTGTCA | 0.0522 |
| AGAGTTTG | -0.113 |
| TACGCCTA | 0.0847 |
| AAACCTGC | -0.202 |
| CGTCACCA | -0.0242 |
| CGGCAACA | -0.101 |
| AATAATGC | 0.024 |
| CCCCGACC | -0.258 |
| TAGAGCGA | 0.112 |
| CGGGACGA | -0.0778 |

| Sequence | PBM E-score |
| --- | --- |
| ACTTAAGC | 0.1 |
| AAAAAGAG | 0.0369 |
| AAGTCCAG | -0.0247 |
| AGACCGAG | -0.0195 |
| GCGAATAA | -0.11 |
| GGAATGGA | -0.211 |
| CCAGGGCC | -0.173 |
| ACGATAAG | -0.117 |
| AATTCTAC | -0.0155 |
| TAATCTCA | 0.21 |
| GCTTGCAA | -0.0673 |
| ACGGGCTA | -0.288 |
| CTTCTGAA | -0.0666 |
| CCGCGACG | -0.14 |
| ATAGGTAG | 0.0647 |
| AAGTTAAA | -0.00583 |
| ACATGGCG | -0.156 |
| CGGCATTC | -0.181 |
| GGACAAAA | -0.153 |
| GGGGTATA | -0.16 |
| ATGCACCC | -0.0692 |
| AGCCCACA | -0.143 |

| Sequence | PBM E-score |
| --- | --- |
| ACATGGAC | 0.0899 |
| CACTCGAC | -0.0515 |
| AAAGGGCC | -0.189 |
| CTGGGAAG | 0.0347 |
| ATTGGCGC | -0.244 |
| TCATTTCA | 0.274 |
| CAAATGTC | -0.23 |
| CTGAGAAC | 0.0878 |
| AACCGCAA | 0.0487 |
| ACACAGTC | 0.285 |
| CCGTCTAG | -0.0627 |
| CCAAAGCC | -0.177 |
| GTCTCTAA | 0.0492 |
| ACTACATA | 0.209 |
| CTTTCTCC | -0.157 |
| CTAATCAC | 0.393 |
| CTGATGCC | -0.135 |
| AAGGACTG | 0.184 |
| GCCCTAAC | -0.182 |
| GTTCCCGA | -0.0537 |
| TAGCTATA | -0.115 |
